± gives the standard deviation of the averaged measurements. Growth of baker's yeast expressing single-residue variants of Pneumocystis jirovecii dihydrofolate reductase in 8.8 or 44 µM methotrexate (about 75% and 90% inhibition of the wild type). Selection coefficient per generation; 0 = like wild type, above 0 = less sensitive, below 0 = more sensitive or loss of function. No active / inactive call per row; the paper calls resistant above 0.220 (8.8 µM) or 0.243 (44 µM) together with a significance test. At 44 µM about 15% of codons end with one read or none, so the lowest values are floors (replicate rank correlation 0.74; 0.94 at 8.8 µM).
B1: UniProt A0EPZ9; numbered along this chain (parent)
chain: MDWQKSLTLIVALTLSRGIGLKNDLPWKLKSDMMFFSRVTSGLLVTRSTGQMNVVLMGRKTWESLPAHSRPLKNRINVVISRQEVLDLGGGAYHARSLDDALALLSQIYDSTSKIQLNRVFVIGGGELCKAAMEHSRLNRIIATVIHNEVDCDVFFPIDFRSSQSCLPWRKQDHSVLEAWVGSKVPQGKINENGFIYEFEMWIRDI

Variants of: B1
Test: selection coefficient against synonymous wild-type codons (log2 per generation); higher = faster growth than wild type
Conditions: with Saccharomyces cerevisiae carrying the variant on a plasmid
Experimental: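 Pooled growth of yeast carrying single-residue variants of P. jirovecii dihydrofolate reductase (own DFR1 gene intact), two passages at 30 °C, three cultures, sequenced before and after. Codons with under 15 starting reads are left out; codons of one change are averaged.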

| Variant | selection coefficient against synonymous wild-type codons (log2) (methotrexate 8.8 µM) | selection coefficient against synonymous wild-type codons (log2) (methotrexate 44 µM) |
| --- | --- | --- |
| MDWQKSLTLIVALTLSRGIGLKNDLPWKLKSDMMFFSRVDSGLLVTRSTGQMNVVLMGRKTWESLPAHSRPLKNRINVVISRQEVLDLGGGAYHARSLDDALALLSQIYDSTSKIQLNRVFVIGGGELCKAAMEHSRLNRIIATVIHNEVDCDVFFPIDFRSSQSCLPWRKQDHSVLEAWVGSKVPQGKINENGFIYEFEMWIRDI [T40D] | -0.581 ± 0.093 | -0.443 ± 0.014 |
| MDWQKSLTLIVALTLSRGIGLKNDLPWKLKSDMMFFSRVISGLLVTRSTGQMNVVLMGRKTWESLPAHSRPLKNRINVVISRQEVLDLGGGAYHARSLDDALALLSQIYDSTSKIQLNRVFVIGGGELCKAAMEHSRLNRIIATVIHNEVDCDVFFPIDFRSSQSCLPWRKQDHSVLEAWVGSKVPQGKINENGFIYEFEMWIRDI [T40I] | -0.513 ± 0.18 | -0.265 ± 0.092 |
| MDWQKSLTLIVALTLSRGIGLKNDLPWKLKSDMMFFSRVHSGLLVTRSTGQMNVVLMGRKTWESLPAHSRPLKNRINVVISRQEVLDLGGGAYHARSLDDALALLSQIYDSTSKIQLNRVFVIGGGELCKAAMEHSRLNRIIATVIHNEVDCDVFFPIDFRSSQSCLPWRKQDHSVLEAWVGSKVPQGKINENGFIYEFEMWIRDI [T40H] | -0.601 ± 0.062 | -0.438 ± 0.038 |
| MDWQKSLTLIVALTLSRGIGLKNDLPWKLKSDMMFFSRVMSGLLVTRSTGQMNVVLMGRKTWESLPAHSRPLKNRINVVISRQEVLDLGGGAYHARSLDDALALLSQIYDSTSKIQLNRVFVIGGGELCKAAMEHSRLNRIIATVIHNEVDCDVFFPIDFRSSQSCLPWRKQDHSVLEAWVGSKVPQGKINENGFIYEFEMWIRDI [T40M] | -0.556 ± 0.1 | -0.241 ± 0.21 |
| MDWQKSLTLIVALTLSRGIGLKNDLPWKLKSDMMFFSRVQSGLLVTRSTGQMNVVLMGRKTWESLPAHSRPLKNRINVVISRQEVLDLGGGAYHARSLDDALALLSQIYDSTSKIQLNRVFVIGGGELCKAAMEHSRLNRIIATVIHNEVDCDVFFPIDFRSSQSCLPWRKQDHSVLEAWVGSKVPQGKINENGFIYEFEMWIRDI [T40Q] | -0.614 ± 0.085 | -0.299 ± 0.13 |
| MDWQKSLTLIVALTLSRGIGLKNDLPWKLKSDMMFFSRVGSGLLVTRSTGQMNVVLMGRKTWESLPAHSRPLKNRINVVISRQEVLDLGGGAYHARSLDDALALLSQIYDSTSKIQLNRVFVIGGGELCKAAMEHSRLNRIIATVIHNEVDCDVFFPIDFRSSQSCLPWRKQDHSVLEAWVGSKVPQGKINENGFIYEFEMWIRDI [T40G] | -0.529 ± 0.12 | -0.245 ± 0.1 |
| MDWQKSLTLIVALTLSRGIGLKNDLPWKLKSDMMFFSRVRSGLLVTRSTGQMNVVLMGRKTWESLPAHSRPLKNRINVVISRQEVLDLGGGAYHARSLDDALALLSQIYDSTSKIQLNRVFVIGGGELCKAAMEHSRLNRIIATVIHNEVDCDVFFPIDFRSSQSCLPWRKQDHSVLEAWVGSKVPQGKINENGFIYEFEMWIRDI [T40R] | -0.591 ± 0.11 | -0.343 ± 0.058 |
| MDWQKSLTLIVALTLSRGIGLKNDLPWKLKSDMMFFSRVKSGLLVTRSTGQMNVVLMGRKTWESLPAHSRPLKNRINVVISRQEVLDLGGGAYHARSLDDALALLSQIYDSTSKIQLNRVFVIGGGELCKAAMEHSRLNRIIATVIHNEVDCDVFFPIDFRSSQSCLPWRKQDHSVLEAWVGSKVPQGKINENGFIYEFEMWIRDI [T40K] | -0.527 ± 0.095 | -0.322 ± 0.11 |
| MDWQKSLTLIVALTLSRGIGLKNDLPWKLKSDMMFFSRVESGLLVTRSTGQMNVVLMGRKTWESLPAHSRPLKNRINVVISRQEVLDLGGGAYHARSLDDALALLSQIYDSTSKIQLNRVFVIGGGELCKAAMEHSRLNRIIATVIHNEVDCDVFFPIDFRSSQSCLPWRKQDHSVLEAWVGSKVPQGKINENGFIYEFEMWIRDI [T40E] | -0.676 ± 0.027 | -0.386 ± 0.084 |
| MDWQKSLTLIVALTLSRGIGLKNDLPWKLKSDMMFFSRVFSGLLVTRSTGQMNVVLMGRKTWESLPAHSRPLKNRINVVISRQEVLDLGGGAYHARSLDDALALLSQIYDSTSKIQLNRVFVIGGGELCKAAMEHSRLNRIIATVIHNEVDCDVFFPIDFRSSQSCLPWRKQDHSVLEAWVGSKVPQGKINENGFIYEFEMWIRDI [T40F] | -0.57 ± 0.022 | -0.364 ± 0.061 |
| MDWQKSLTLIVALTLSRGIGLKNDLPWKLKSDMMFFSRVPSGLLVTRSTGQMNVVLMGRKTWESLPAHSRPLKNRINVVISRQEVLDLGGGAYHARSLDDALALLSQIYDSTSKIQLNRVFVIGGGELCKAAMEHSRLNRIIATVIHNEVDCDVFFPIDFRSSQSCLPWRKQDHSVLEAWVGSKVPQGKINENGFIYEFEMWIRDI [T40P] | -0.553 ± 0.064 | -0.306 ± 0.12 |
| MDWQKSLTLIVALTLSRGIGLKNDLPWKLKSDMMFFSRVLSGLLVTRSTGQMNVVLMGRKTWESLPAHSRPLKNRINVVISRQEVLDLGGGAYHARSLDDALALLSQIYDSTSKIQLNRVFVIGGGELCKAAMEHSRLNRIIATVIHNEVDCDVFFPIDFRSSQSCLPWRKQDHSVLEAWVGSKVPQGKINENGFIYEFEMWIRDI [T40L] | -0.686 ± 0.04 | -0.206 ± 0.19 |
| MDWQKSLTLIVALTLSRGIGLKNDLPWKLKSDMMFFSRVNSGLLVTRSTGQMNVVLMGRKTWESLPAHSRPLKNRINVVISRQEVLDLGGGAYHARSLDDALALLSQIYDSTSKIQLNRVFVIGGGELCKAAMEHSRLNRIIATVIHNEVDCDVFFPIDFRSSQSCLPWRKQDHSVLEAWVGSKVPQGKINENGFIYEFEMWIRDI [T40N] | -0.512 ± 0.055 | -0.349 ± 0.062 |
| MDWQKSLTLIVALTLSRGIGLKNDLPWKLKSDMMFFSRVSSGLLVTRSTGQMNVVLMGRKTWESLPAHSRPLKNRINVVISRQEVLDLGGGAYHARSLDDALALLSQIYDSTSKIQLNRVFVIGGGELCKAAMEHSRLNRIIATVIHNEVDCDVFFPIDFRSSQSCLPWRKQDHSVLEAWVGSKVPQGKINENGFIYEFEMWIRDI [T40S] | 0.308 ± 0.021 | 0.348 ± 0.039 |
| MDWQKSLTLIVALTLSRGIGLKNDLPWKLKSDMMFFSRVCSGLLVTRSTGQMNVVLMGRKTWESLPAHSRPLKNRINVVISRQEVLDLGGGAYHARSLDDALALLSQIYDSTSKIQLNRVFVIGGGELCKAAMEHSRLNRIIATVIHNEVDCDVFFPIDFRSSQSCLPWRKQDHSVLEAWVGSKVPQGKINENGFIYEFEMWIRDI [T40C] | 0.168 ± 0.078 | 0.216 ± 0.044 |

Reference: the supplement of paper PMC11125491
